Assay results taken from PubChem BioAssay AID463173 (ICCB-Longwood Screening Facility, Harvard Medical School, 2010).
In all, about 52,000 compounds went through this assay and about 1,700 (3.3%) were called active. No stated cut-off is given here; in the data, active means survival mostly below about 52% (no sharp cut-off); inactive means mostly above about 56%. This is one part of the list.

System: Wild type
Assay: growth inhibition of S. aureus wild type versus tarO mutant, primary screen, teichoic acid synthesis inhibitors, RN4220, OD600 (AID 463173)
Settings: S. aureus RN4220 wild type/DeltatarO growth, OD600, 18 h, stronger effect = lower value, screened at 18.75 µg/mL (by protocol)

Compound	survival
Cc1cc(OCC(=O)Nc2ccc(C(=O)OC3CCCCC3)cc2)cc(C)c1Cl	inactive: 52%
COc1ccc(CCNCc2c(C(=O)O)c(C)n(Cc3c(F)cccc3Cl)c2C)cc1OC	inactive: 116%
Cc1ccc(-c2cc(-c3ccc4c(c3)NC(=O)CO4)nc3c2COc2ccccc2-3)cc1	inactive: 95%
COc1ccccc1CN1CCN(C(CC(C)C)c2nnnn2Cc2ccc(F)cc2)CC1 (configuration not stated)	inactive: 107%
Cc1ccc2c(c1)C(=O)OC(C(=O)Nc1ncc(Cc3ccccc3Cl)s1)C2 (configuration not stated)	inactive: 86%
CCOc1ccc2c(c1)c(=O)c(C(=O)c1ccccc1)cn2Cc1ccccc1	inactive: 75%
Cc1c(CCC(=O)NCCc2ccccc2)c(=O)oc2cc(O)ccc12	inactive: 87%
Cc1ccc(C(=O)Nc2c(C(=O)NC(C)(C)C)oc3ccccc23)cc1	active: 0%
COc1ccc2c(c1)c1c(c(=O)n(-c3ccc(F)c(Cl)c3)c(=O)n1Cc1cccc(C)c1)n2C	inactive: 71%
Cc1cc(C)c2c(CC(=O)Nc3ccc(F)cc3)coc2c1	inactive: 94%
Cc1ccc(-n2nc(C)c3nc(CCC(=O)Nc4cccc(C)c4C)c(=O)n(C)c32)cc1	inactive: 76%
CCCS(=O)(=O)c1nc(S(=O)(=O)c2ccc(C)cc2)c(N(CC)CC)s1	inactive: 125%
CCOC(=O)c1ccc(NC(=O)CSc2c(C(C)C)cnc3c2c(=O)n(C)c(=O)n3C)cc1	inactive: 136%
COc1ccc(CNC(=O)Cn2nc3c(cc2=O)CCCC3)cc1	inactive: 64%
Cc1cccc(N2C(=O)N(Cc3cc(=O)n4ccccc4n3)c3ccccc3S2(=O)=O)c1	inactive: 89%
CC(C)OC(=O)c1ccc2c(c1)no[n+]2[O-]	inactive: 109%
CC(=O)Nc1ccc(NC(=O)c2oc3ccc4c(c3c2C)C(=O)CC(C)(C)O4)cc1	inactive: 88%
O=C(NCCc1ccccc1)c1ccc2c(c1)N(Cc1ccccc1F)C(=O)c1ccccc1S2=O (configuration not stated)	inactive: 97%
O=c1c(N2CCc3ccccc3C2)csc2ccccc12	inactive: 74%

Compound	survival
CCOc1ccc(-c2nc3c(c(SCC(=O)N4CCCCC4)n2)Cc2ccccc2O3)cc1	inactive: 82%
CNC(=O)C1CCC(Cn2c(=O)c3sccc3n(CC(=O)NCc3ccc(F)cc3)c2=O)CC1 (configuration not stated)	inactive: 45%
O=C(C1CCCN(S(=O)(=O)c2ccc(Br)s2)C1)N1CCN(c2ccccc2)CC1 (configuration not stated)	inactive: 77%
Cc1ccc(-c2ccc(=O)n(CC(=O)Nc3cccc(C#N)c3)n2)cc1	inactive: 128%
CC1=C(C(=O)Nc2cccnc2)C(c2ccccc2)n2nc(-c3ccc(O)cc3)nc2N1 (configuration not stated)	inactive: 68%
Cc1ccc(C2CCN(C(=O)c3cnn(-c4ccc(C)cc4)c3C3CCN(C(=O)OC(C)(C)C)CC3)C2)cc1 (configuration not stated)	inactive: 119%
C=Cc1ccc(Cn2c(C(=O)O)c(CNCc3ccccc3)c3ccc(C)cc32)cc1	inactive: 129%
CCc1nnc(NC(=O)C2CCN(S(=O)(=O)Cc3ccccc3)CC2)s1	inactive: 106%
Cc1c(C(=O)N2CCCCC2)sc(NC(=O)C(C)C)c1C#N	inactive: 116%
CC(=O)N1CCCc2cc(S(=O)(=O)N3CCCC(C(=O)Nc4cc(Cl)ccc4C)C3)ccc21 (configuration not stated)	inactive: 146%
COc1ccc(NC(=O)c2ccc3c(=O)n4nc(Nc5cccc(Cl)c5C)sc4nc3c2)cc1	inactive: 74%
O=C(N1CCCC1)N1c2ccccc2C=Cc2ccccc21	inactive: 118%
Cc1ccc(-c2csc(=Nc3ccc(F)cc3)n2Cc2ccc3c(c2)OCO3)cc1C	inactive: 88%
CCOc1ccccc1NS(=O)(=O)c1ccc(-c2cnc(C3CC3)o2)cc1	inactive: 83%
Cc1ccc2cc(CN(CC3CCCO3)C(=O)C3CCC3)c3nnnn3c2c1 (configuration not stated)	inactive: 115%
COc1cccc(NC(=O)CC(C)S(=O)(=O)c2ccc3c(c2)NC(=O)CO3)c1 (configuration not stated)	inactive: 111%
Cc1c(Cl)cccc1NC(=O)c1ncn(-c2ccccc2)n1	inactive: 92%
Cc1ccc(NC(=O)CN2C(=O)C3(SCC(=O)N3c3cccc(Cl)c3)c3ccccc32)cc1C (configuration not stated)	inactive: 85%
Cc1nn(-c2ccccc2)c2sc(C(=O)Nc3ccccc3Br)cc12	active: 7%

Compound	survival
CC1CCCN(c2ncccc2C(=O)NCC2CCCO2)C1 (configuration not stated)	inactive: 95%
COc1ccc(CCNC(=O)CSc2nc(-c3ccc(F)cc3)cc(C(F)(F)F)n2)cc1OC	inactive: 97%
Cc1cccc(C(=O)Nc2nnc(S(=O)(=O)N(C)Cc3ccco3)s2)c1	inactive: 29%
Nc1c(C(=O)Nc2ccc(C(=O)O)cc2)sc2nc3c(cc12)CCCC3	inactive: 77%
Cc1ccc(NS(=O)(=O)c2ccc3c(c2)CCCN3C(=O)C2CCC2)cc1Cl	inactive: 136%
O=C(CC1Nc2ccccc2NC1=O)Nc1cccc2ccccc12 (configuration not stated)	inactive: 99%
O=C(NCc1ccc2c(c1)CCN2C(=O)c1ccc(Cl)cc1)c1cccc(F)c1	inactive: 55%
Cc1ccc(NC(=O)CCS(=O)(=O)c2cc3c4c(c2)CCN4C(=O)CC3)c(C)c1	inactive: 78%
O=C(Nc1nnc(S(=O)(=O)Nc2ccccc2)s1)c1ccccc1Cl	inactive: 40%
CCc1noc(-c2ccc(N3CCCCC3C)c([N+](=O)[O-])c2)n1 (configuration not stated)	inactive: 123%
COCCNc1nc2c(S(=O)(=O)c3ccc(C)c(C)c3)nnn2c2ccc(Cl)cc12	inactive: 89%
COc1cc(OC)cc(C(=O)Nc2ccc(S(=O)(=O)Nc3ncccn3)cc2)c1	inactive: 91%
Cc1nc2nncn2c(NCc2ccc(F)cc2)c1C	inactive: 84%
CN1C(=O)/C(=C2/SC(=S)N(c3cccc(O)c3)C2=O)c2ccccc21	inactive: 102%
CCC(Oc1ccccc1)C(=O)Nc1cc(-c2ccccc2OC)nn1-c1ccccc1 (configuration not stated)	inactive: 70%
Cc1cc(C(F)(F)F)n2nc(C)cc2n1	inactive: 107%
O=C(N/N=C/c1cn(-c2ccccc2)nc1-c1ccccc1)c1ccco1	inactive: 99%
Cc1cc(Cl)nc(-c2ccccc2)n1	inactive: 112%
Cc1ccc(CS(=O)(=O)c2ncc(Cl)c(C(=O)Nc3nc4ccc(F)cc4s3)n2)cc1	inactive: 20%
